Some of the results follow.

The assay concerns PF3D7_0420300 AP2 domain 1 (GST-tagged). As to the kind of experiment: gcPBM binding intensity (ln(normalized median fluorescence intensity)); higher = stronger DNA binding. The method in brief:
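Binding intensity values are the highest Masliner-normalised natural-log median intensity among replicate spots of either probe orientation. The binding step lasted 1 h in 1× PBS with 1% milk, 0.2 mg/ml BSA, 0.5% salmon testes DNA and 0.03% Triton X-100, using GST-tagged P. falciparum DNA-binding domains expressed in E. coli on an Agilent 4 × 180k array of primer-extended double-stranded 36-bp intergenic genomic probes plus negative controls. Alexa488 anti-GST antibody and a 488 nm scan detected bound protein.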
Regarding “ATCATCTATGTTATTACACACGTTATGTTATTATAA [CACACA_site5502]”, the “gcPBM binding intensity (ln)” value turned out to be 9.6. With “TTTAGATAATTCATTACACACATGTATATTTATATA [CACACA_site7602]” the figure was 9.46. As for “TTTTTTTTTTTTTTATGTACGAAAGAAAAGCACATA [XGTACX_site8261]”, the “gcPBM binding intensity (ln)” value was 8.75. On to “TAACGAATTTAAATTTGTACATATATAAATATATAA [XGTACX_site2168]”, for which the “gcPBM binding intensity (ln)” value is 9.02. With “TATGAAAAAAAAAATACACACACGAGTTGTTATACA [CACACA_site3188]” the figure was 9.48; with “AATGAAATATGGATGGGTACACATTTGATTTTATTA [XGTACX_site6155]”, 9.23; with “ATATATATAAACATATGTACACATATATATAATACA [XGTACX_site1848]”, 9.32. With “TGTATGTATAGAAACACACATACATATATATAATAT [CACACA_site1405]” the figure was 9.35; with “AAAAAAAATTAATTAGTGCAAAATATATACAAAATA [GTGCAC_site9762]”, 9.41; with “TAAGAAAATATTTATGTATGCATGTCCTAATATTTC [TGCATGCA_site295]”, 9.11. With “ATATAAAATATTAGTAGTACCATTAACAGTATTGTT [XGTACX_site5912]”, the “gcPBM binding intensity (ln)” value was found to be 9.4. For the sequence “ATTAAGATGTATATATGTACATATTACATACATATA [XGTACX_site8657]”, the “gcPBM binding intensity (ln)” value stood at 9.12. On to “AACAAGAAAAAAAAAAAAAAAAAAAAAAAATATTTT [XGTACX_negctrl_site428]”, for which the “gcPBM binding intensity (ln)” value was 9.11. With “ATATATATATTTTTATGAGGCATAAGTAATATTTTT [TGCATGCA_negctrl_site317]”, the “gcPBM binding intensity (ln)” value was 9.05. On to “AATGTAATATAAATATGTACATAATATATATAATTA [XGTACX_site4762]”, for which the “gcPBM binding intensity (ln)” value came out at 9.36. For “TTTTTATTTTTTTAGTATACGTACTAGGTTTGTTCT [XGTACX_site645]”, the “gcPBM binding intensity (ln)” value stood at 9.37. In the case of “ATATATTTATATATATGTACTTAAAACATTTCGATG [XGTACX_site328]” it was 9.01. As for “ATTTGTTTATAGGCCATAAAATATTTAATTCATTTG [CACACA_negctrl_site1824]”, the “gcPBM binding intensity (ln)” value worked out at 9.26. Turning to “AGTATTATATTTGTATGTACGTAGTAATATATAAAA [XGTACX_site528]”, the “gcPBM binding intensity (ln)” value was determined as 9.29.

On to “TTTTTCATAAATATATGTACATATATTTTATATAAC [XGTACX_site3402]”, for which the “gcPBM binding intensity (ln)” value is 9.13. In the case of “ATTTATATTTATGATACACACACGTATATTCACATA [CACACA_site460]”, the “gcPBM binding intensity (ln)” value came to 9.79. In the case of “ATATAAAAAAAAGATGAAAAAAAAAATGAAAGAAAG [CACACA_negctrl_site1266]”, the “gcPBM binding intensity (ln)” value came to 9.58. On to “ATATATATAATATGATGTACATATTTATTTATATAT [XGTACX_site7333]”, for which the “gcPBM binding intensity (ln)” value came out at 9.09. In the case of “AATGAAATAAAATAAAGTACATATATGTAAAAGTAG [XGTACX_site5650]” it was 9.87; in that of “TTTTTTTTTTTTTACACACACAAAATATTATCTGTA [CACACA_site5378]”, 9.63; in that of “AATTGAAAAGAATGAAGTACACATTTGATGATACAT [XGTACX_site5182]”, 9.38. Regarding “AAAAATTCTTTTTCATCTATATGCAGAAAGAAAAAG [CACACA_negctrl_site1201]”, the “gcPBM binding intensity (ln)” value was 8.74. On to “TAATTTTTATGAAGAAGTACAAAATCTACTATCATA [XGTACX_site4985]”, for which the “gcPBM binding intensity (ln)” value stood at 8.78. For the sequence “CTAAATAAAGTTAACACACACATAATATATATATGT [CACACA_site486]”, the “gcPBM binding intensity (ln)” value came to 9.75. With “CATAAACTTTTTAACACACACTTATATATATATATA [CACACA_site4747]” the figure was 9.58; with “TACATCTGTAATGTGTGTACATATATGTATATATTT [XGTACX_site1805]”, 9.38; with “TATAATAATATATATTGTACACACAAAATGGGAAAA [XGTACX_site3911]”, 9.84. Turning to “GAATTTATGAACTGTGCATGTAAAAAAAACAACAAA [TGCATGCA_site449]”, the “gcPBM binding intensity (ln)” value stood at 9.4. As for “TATATGAAGCTATAGACACACATATAAAAATATAAT [CACACA_site4850]”, the “gcPBM binding intensity (ln)” value was found to be 9.41. Regarding “TTTTATTTTATAAAAATAAAAAAAAAATTATTACAA [TGCATGCA_negctrl_site508]”, the “gcPBM binding intensity (ln)” value stood at 8.77. Regarding “AATTAAATAAATGTATGTACATAATAAATATGTATT [XGTACX_site4379]”, the “gcPBM binding intensity (ln)” value is 9.32.

As for “TGAAAATAGTTAATTTGTACACAAAAATTAAGAAAA [XGTACX_site5794]”, the “gcPBM binding intensity (ln)” value turned out to be 9.26. On to “AAAGAAATATATACAAAAATATGAACAATTTATTAT [XGTACX_negctrl_site78]”, for which the “gcPBM binding intensity (ln)” value was found to be 9.46. In the case of “TTTTCGATGTTGGTAGGATGTATGGTACACGTAGTA [TGCATGCA_negctrl_site61]” it was 9.14; in that of “TATGAAAATATATATTGTACAGAATCTATAAAAAAT [XGTACX_site8030]”, 9.23. In the case of “GAAAATTTTTGGTGTACACAAAAAAATCCAAAAAAA [CACACA_site5042]”, the “gcPBM binding intensity (ln)” value came to 9.14.

Regarding “TATGATTGTTTACGTTGTACAGCTGAATTGTTCTTA [XGTACX_site8114]”, the “gcPBM binding intensity (ln)” value is 9.34. For “GAATGCCTTGAAAATAGTACAATTAAGAAAAAATAC [XGTACX_site8002]”, the “gcPBM binding intensity (ln)” value worked out at 9.19. As for “AATAAAAGATCATTTATTCTTTTTTTTCTTTTTAAA [CACACA_negctrl_site1256]”, the “gcPBM binding intensity (ln)” value stood at 8.75. As to “TAAATAAATTTATACACACACACACCGATATATATA [CACACA_site4622]”, the “gcPBM binding intensity (ln)” value stood at 10.1. Turning to “AAAATACATAAACGTTCACACATTTAAGATAACGAG [CACACA_site5345]”, the “gcPBM binding intensity (ln)” value is 9.52. In the case of “TATATATATAATATATGTACATATTAATTATGTATA [XGTACX_site5366]” it was 9.03; in that of “TGAATAAATATATATACACACATATATGTATATATT [CACACA_site1642]”, 9.35; in that of “GAGTTTACACTCCCTTGTACATATTCATTTTTATTC [XGTACX_site5208]”, 9.66. “ATAATGGAGAAATAAGCATGCATTATATTATAAAAA [TGCATGCA_site325]”: the “gcPBM binding intensity (ln)” value was found to be 9.24. On to “AATTTCTATTTTGTGAGTACATACTCCTATTATATA [XGTACX_site3210]”, for which the “gcPBM binding intensity (ln)” value worked out at 9.3. As to “TAAAAGTTAATATAAACACACAAAAATTAATAAATA [CACACA_site6316]”, the “gcPBM binding intensity (ln)” value was found to be 9.57. “TGAATATTTCTATATACACACATATAAATATAAATA [CACACA_site7593]”: the “gcPBM binding intensity (ln)” value came to 9.31. Consider “AAAAAAAAAAAAATGTAATTTTTTAATTATTTATAT [GTGCAC_negctrl_site436]”, for which the “gcPBM binding intensity (ln)” value is 8.79. In the case of “CATATATTTTTGTATAGTACTTTTTTTATTCGTTTT [XGTACX_site1860]” it was 9.47. “GATAAAATGGATGGATGTACATTATTTCCATATAAT [XGTACX_site7781]”: the “gcPBM binding intensity (ln)” value stood at 9.17.

These data come from the supplement of paper PMC11417369.
